Out of some 94,000 compounds screened, about 4,000 (4.3%) were called active. Inconclusive results, whose numbers are uncertain, are shown with a selection of clear calls. The call rests on the fitted dose curve; in most records, active means well fitted inhibition curve with a large enough effect; inconclusive means small, poorly fitted or top-dose-only effect; inactive means no such curve, though single readings can be large or run the other way. Potencies beside an inconclusive call are fits to weak or partial responses and may not hold up.
Assay: Cytotoxic Profiling in NIH 3T3 Cell Line of Diverse Libraries Using Quantitative High-Throughput Screening; further: nearly all actives have a fitted effect of over 55% in size
Conditions: NIH 3T3 viability, CellTiter-Glo ATP luminescence, 48-72 h; activity change, negative = cytotoxicity: at 96.7 µM (top of the series); series mostly up to 96.7 µM
Procedure, shortened: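 Cells were seeded at 400 per well, treated with pin-transferred compound, and kept 48 or 72 hr at 37 °C before CellTiter-Glo addition and luminescence imaging of cellular ATP.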
On the % scale 0 is the no-effect control and ±100 the full control effect; potency means the concentration at half of the fitted maximal effect; tags describe the fitted curve by direction and shape.

SMILES	activity change, negative = cytotoxicity	Potency	outcome
COc1ccccc1N1CCN(C(=O)c2cc3cn(C4CCCC4)cc3s2)CC1	inactive: -17.3%	–	–
Cc1nc(CN2C[C@H](C(=O)NCc3cccc(F)c3)C[C@@H]2c2ccc(F)cc2)cs1	–	inconclusive: 89.1 µM [inhibitor, partial curve]	–
Cc1ncoc1C(=O)N[C@@H]1CN(S(C)(=O)=O)C[C@H]1CN(C)C	inactive: -7.69%	–	–
Cn1cc(-c2ccccc2Oc2ccccc2)c2nc(CN3CCNC(=O)C3)cn2c1=O	–	inconclusive: 31.6 µM [inhibitor, partial curve, poor fit]	–
CC(C)Oc1ccc(CNC(=O)C2CCCCC(=O)N2Cc2ccccc2)cc1 (configuration not stated)	–	inconclusive: 50.1 µM [inhibitor, partial curve, poor fit]	–
O=C(NCC1CCCCC1)C1CCN(C(=O)N2CC3CC(C2)[C@H]2CCCC(=O)N2C3)CC1 (some centres not stated)	inactive: -15.6%	–	–
O=C(Nc1cccc(C(F)(F)F)c1)c1nc2c(o1)CCN(Cc1nccs1)CC2	–	inconclusive: 89.1 µM [inhibitor, partial curve]	–
COCCN1CCN(C[C@@H]2C=C(C)[C@H](Cc3nnc(-c4cccnc4)o3)C[C@H]2C(C)C)CC1	–	inconclusive: 31.6 µM [inhibitor, partial curve, poor fit]	–
Cc1cc2nc3n(c(=O)c2n1CC(=O)N1CCCc2ccccc21)CCCC3	inactive: -17.5%	–	–
O=C1NC(=NC2CCCCC2)C2(CCCN([S+](=O)([O-])c3cccc(C(F)(F)F)c3)C2)N1c1cccnc1 (configuration not stated)	–	inactive	–
CC(C)CNC(=O)c1cc(-c2ccc(Cl)cc2Cl)c2nncn2n1	–	inconclusive: 56.2 µM [inhibitor, partial curve, poor fit]	–
CN(C)CCNC(=O)c1cc(-c2ccc(F)cc2)cc2ncn(C)c12	–	inconclusive: 56.2 µM [inhibitor, partial curve, poor fit]	–
COc1ccc(-c2nc(C3CC(=O)N(C4CCCCC4)C3)no2)cc1 (configuration not stated)	–	inconclusive: 31.6 µM [inhibitor, full curve]	–
Cc1cc(F)ccc1C(=O)N1CCn2nc(Cc3ccccc3)cc2C1	–	inconclusive: 50.1 µM [inhibitor, partial curve, poor fit]	–
CN1C[C@@H](NC(=O)C2CCCCC2)C[C@H]1c1nc(-c2ccc3c(c2)OCO3)no1	–	inconclusive: 10 µM [inhibitor, partial curve, poor fit]	–
COCCNC(=O)c1nc2cccnc2n(Cc2ccccc2OC)c1=O	–	inconclusive: 70.8 µM [inhibitor, partial curve, poor fit]	–
COCCN1C(=O)c2ccccc2C(C(=O)Nc2nc(C(=O)OC)c(C(C)C)s2)C12CCCC2 (configuration not stated)	–	inconclusive: 50.1 µM [inhibitor, partial curve, poor fit]	–
CC(C)Cc1cn(CC2CCCN(C(=O)NC3CCCCCC3)C2)nn1 (configuration not stated)	–	inconclusive: 35.5 µM [inhibitor, partial curve]	–
Cc1cccc(-c2noc([C@@H]3Cc4nc[nH]c4CN3C(=O)C3CCCCC3)n2)c1	–	inconclusive: 112 µM [inhibitor, partial curve, poor fit]	–
Oc1ccc(CCC2CCCCN2Cc2nc(Cc3cccc(F)c3)no2)cc1 (configuration not stated)	–	inconclusive: 56.2 µM [inhibitor, partial curve, poor fit]	–
Cn1ncc2c(C(=O)NCC3CC3)cc(-c3cccc(F)c3)nc21	–	inconclusive: 12.6 µM [inhibitor, full curve, poor fit]	–

SMILES	activity change, negative = cytotoxicity	Potency	outcome
CCC(=O)N(C1CCOCC1)C1CCN(S(=O)(=O)c2ccc(F)c(C)c2)CC1	–	inconclusive: 50.1 µM [inhibitor, single point]	–
Cc1nc(-c2c3n(c(=O)n(Cc4ccc(Cl)cc4)c2=O)CCCC3)no1	inactive: -13.3%	–	–
O=C(c1ccc(N2CCC(O)CC2)nc1)N1CCC(Oc2cccnc2)CC1	inactive: -20.5%	–	–
Cc1nn(-c2ccccn2)c(C)c1[C@@H]1C=C[C@@H](NC(=O)NC(C)C)C1	–	inconclusive: 89.1 µM [inhibitor, partial curve, poor fit]	–
Cc1c(CN2CCCC(COc3ccccc3C(=O)N3CCC(C)CC3)C2)cnn1C (configuration not stated)	inactive: -3.17%	–	–
Cc1ccccc1C(=O)NCc1cccnc1Oc1cccc(C(F)(F)F)c1	–	inconclusive: 39.8 µM [inhibitor, partial curve, poor fit]	–
Cn1c(CO[C@H]2CN(S(=O)(=O)c3ccc(Cl)cc3)C[C@H]2F)nc2ccccc21	–	inconclusive: 56.2 µM [inhibitor, partial curve, poor fit]	–
CC(C)CN(CC1CN(C(=O)c2ccc(Cl)c(Cl)c2)CCO1)C(=O)c1ccc(F)cc1 (configuration not stated)	–	inconclusive: 50.1 µM [inhibitor, partial curve, poor fit]	–
O=[S+]([O-])(c1ccccc1)N1CCCN(c2ccc3nnc(C4CC4)n3n2)CC1	–	inconclusive: 44.7 µM [inhibitor, partial curve, poor fit]	–
CCC(=O)N1CCC2(CC1)OCC(C(=O)NCc1ccccc1)N2C(=O)c1ccc(C)cc1 (configuration not stated)	–	inconclusive: 44.7 µM [inhibitor, partial curve, poor fit]	–
O=C1Nc2ccccc2CC12CCN(CC1CC1)CC2	–	inactive	–
COc1ccc(NC(=O)c2ccc(Cn3ccn4nc5c(c4c3=O)CCCC5)cc2)cc1	–	inconclusive: 12.6 µM [inhibitor, full curve, poor fit]	–
O=C(CC1CCCN(c2cnn(CC3CC3)c(=O)c2)C1)NCc1ccc(F)cc1 (configuration not stated)	–	inconclusive: 31.6 µM [inhibitor, full curve, poor fit]	–
C=CCNC(=O)N[C@H]1CO[C@H]2[C@@H]1OC[C@@H]2Nc1nccc(C2CCCC2)n1	–	inconclusive: 56.2 µM [inhibitor, partial curve, poor fit]	–
CN1CC(=O)N(c2ccccc2)Cc2c1ncnc2N1CCc2ccccc2C1	–	inconclusive: 44.7 µM [inhibitor, partial curve, poor fit]	–
Cc1ccc(C(=O)N2CCC3(CC2)C(=O)N(C)c2ccccc23)cc1C	inactive: 1.38%	–	–
OC(c1ccccc1)c1cn(C2CCN(Cc3cnc4ccccc4c3)CC2)nn1 (configuration not stated)	–	inconclusive: 79.4 µM [inhibitor, partial curve, poor fit]	–
O=C(c1ccc(=O)[nH]c1)N1CCCC(CCc2cccc(C(F)(F)F)c2)C1 (configuration not stated)	–	inconclusive: 31.6 µM [inhibitor, full curve]	–
N#Cc1cccc(CN2C[C@@H](CO)[C@H](C(=O)NC3CC3)C2)c1	–	–	inactive
Cc1ccc(C)c(OCC(=O)c2ccc3c(c2)N(C(C)C(=O)N2CCCC2)C(=O)CO3)c1 (configuration not stated)	–	inconclusive: 50.1 µM [inhibitor, partial curve, poor fit]	–
CC(C)c1noc(C2Cc3ccccc3N2C(=O)Nc2ccc3c(c2)OCCO3)n1 (configuration not stated)	–	inconclusive: 50.1 µM [inhibitor, partial curve, poor fit]	–

SMILES	activity change, negative = cytotoxicity	Potency	outcome
Cn1cnc(S(=O)(=O)N2CCC3(CC2)CC(CC(=O)N2CCOCC2)CCO3)c1 (configuration not stated)	inactive: 2.74%	–	–
O=C1[C@@H]2C[C@@H](O)CN2C2(CN(Cc3cccc(F)c3)C2)C(=O)N1Cc1ccccc1	inactive: -20.1% [at 174 µM]	–	–
Cc1ccc([C@H]2C[C@@H](O)[C@@H](O)[C@@H]2NCc2ccccc2)cc1	–	inconclusive: 112 µM [inhibitor, partial curve, poor fit]	–
CNC(=O)c1cc(C2CC2)nc2onc(C3CCCN3C(=O)c3ccc(C)cc3)c12 (configuration not stated)	inactive: -9.85%	–	–
CCCc1noc(-c2cn(C3CCN(C(=O)c4ccsc4)CC3)nn2)n1	–	inconclusive: 28.2 µM [inhibitor, full curve]	–
O=C1NC(=NC2CCCC2)C2(CCN([S+](=O)([O-])c3cccc(C(F)(F)F)c3)CC2)N1c1cccnc1	inactive: -28.4%	–	–
FC(F)(F)CN1C2CCC1CN(c1cnccn1)C2	inactive: 4.06% [at 138 µM]	–	–
NC(=O)c1cccc2[nH]c([C@H]3CCN(Cc4cccc(Cl)c4)C3)nc12	–	inconclusive: 89.1 µM [inhibitor, partial curve, poor fit]	–
CC1(C(=O)NC2COC2)CN(Cc2ccccc2)Cc2ccc(Nc3ccccc3)nc21 (configuration not stated)	–	active: 39.8 µM	–
CC[C@H]1CN(S(=O)(=O)c2ccc(OC)cc2)CC[C@H]1CC(=O)N1CCOCC1	–	inconclusive: 112 µM [inhibitor, partial curve, poor fit]	–
O=C(Cc1cccs1)N1CCCN(CCc2ccccc2)c2ccccc21	–	active: 31.6 µM	–
CNC(=O)c1cc(C2CC2)nc2onc(C3CCN(C(=O)C4CCCC4)C3)c12 (configuration not stated)	–	inconclusive: 44.7 µM [inhibitor, partial curve, poor fit]	–
O=C(Nc1ccc(F)cc1)c1cn2cc(-c3cccc(C(F)(F)F)c3)sc2n1	–	inconclusive: 50.1 µM [inhibitor, partial curve, poor fit]	–
COc1ccccc1Nc1ccnc(N2CCC(C(=O)NCC(F)F)CC2)n1	–	inconclusive: 39.8 µM [inhibitor, partial curve, poor fit]	–
CCOC(=O)c1ccc(NC(=O)N2Cc3[nH]cnc3C[C@H]2c2nc(-c3cccc(C)c3)no2)cc1	–	inconclusive: 15.8 µM [inhibitor, full curve, poor fit]	–
CCOc1ccc(NC(=O)Cn2c(=O)n(-c3ccccc3)c(=O)c3c2cc(C)n3C)cc1	–	–	inactive
CC1(C)[C@H](Cc2cc(CCO)on2)C[C@@H]1NCC1CC1	inactive: -0.442% [at 230 µM]	–	–
O=C1NCc2ccccc2CC12CCCCN2CC1CCCC1 (configuration not stated)	inactive: 4.6%	–	–
COCCn1c(C)nnc1-c1cc(-c2cccc(CO)c2)ccn1	–	inconclusive: 100 µM [inhibitor, partial curve]	–
FC(F)(F)c1ccc(CN2CCNc3cc(Nc4cccnc4)ncc3C2)cc1	–	inconclusive: 22.4 µM [inhibitor, partial curve, poor fit]	–

Reference: PubChem BioAssay AID1345082 (National Center for Advancing Translational Sciences (NCATS), 2018)
